{
  "source": "the supplement of paper PMC4604168 (melanoma cell lines)",
  "assay_in_all_cases": "cell count relative to DMSO control; melanoma cells; higher = more viable cells",
  "conditions_in_all_cases": "library dose: standard library concentration; 72 h; first compound 2 µM",
  "key": {"G361": {"tested_on": "G361"}, "IPC-298": {"tested_on": "IPC-298"}, "IST-MEL1": {"tested_on": "IST-MEL1"}, "LB2518-MEL": {"tested_on": "LB2518-MEL"}, "LOXIMVI": {"tested_on": "LOXIMVI"}, "MEL-HO": {"tested_on": "MEL-HO"}, "MZ2-MEL": {"tested_on": "MZ2-MEL"}, "MeWo": {"tested_on": "MeWo"}, "RPMI7951": {"tested_on": "RPMI7951"}, "RVH-421": {"tested_on": "RVH-421"}, "SkMel28": {"tested_on": "SkMel28"}, "SkMel2": {"tested_on": "SkMel2"}, "SkMel30": {"tested_on": "SkMel30"}, "SkMel5": {"tested_on": "SkMel5"}, "UACC257": {"tested_on": "UACC257"}, "UACC62": {"tested_on": "UACC62"}, "WM115": {"tested_on": "WM115"}, "WM1716": {"tested_on": "WM1716"}, "WM1745": {"tested_on": "WM1745"}, "WM3526": {"tested_on": "WM3526"}},
  "note": "This is one part of the list. Many values rest on one well or one pass, so single values are uncertain.",
  "data": [
    {"compound": "C[C@@H](N)c1ccc(C(=O)Nc2ccnc3[nH]ccc23)cc1", "note": "+ CS(=O)(=O)c1ccc(C(=O)Nc2ccc(Cl)c(-c3ccccn3)c2)c(Cl)c1 [vismodegib] (partner dose 5 µM);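 note: cells treated in 1,536-well plates, then fixed and DAPI-stained, with nuclei counted from automated high-throughput microscope images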", "values": [
      {"measurement": "cell count", "setting": "G361", "value": 79.5, "unit": "%"},
      {"measurement": "cell count", "setting": "IPC-298", "value": 107, "unit": "%"},
      {"measurement": "cell count", "setting": "IST-MEL1", "value": 93.9, "unit": "%"},
      {"measurement": "cell count", "setting": "LB2518-MEL", "value": 138, "unit": "%"},
      {"measurement": "cell count", "setting": "LOXIMVI", "value": 81.4, "unit": "%"},
      {"measurement": "cell count", "setting": "MEL-HO", "value": 61.4, "unit": "%"},
      {"measurement": "cell count", "setting": "MZ2-MEL", "value": 48.3, "unit": "%"},
      {"measurement": "cell count", "setting": "MeWo", "value": 73.5, "unit": "%"},
      {"measurement": "cell count", "setting": "RPMI7951", "value": 45.7, "unit": "%"},
      {"measurement": "cell count", "setting": "RVH-421", "value": 103, "unit": "%"},
      {"measurement": "cell count", "setting": "SkMel28", "value": 85.5, "unit": "%"},
      {"measurement": "cell count", "setting": "SkMel2", "value": 81.5, "unit": "%"},
      {"measurement": "cell count", "setting": "SkMel30", "value": 87.3, "unit": "%"},
      {"measurement": "cell count", "setting": "SkMel5", "value": 69.4, "unit": "%"},
      {"measurement": "cell count", "setting": "UACC257", "value": 41.9, "unit": "%"},
      {"measurement": "cell count", "setting": "UACC62", "value": 66.6, "unit": "%"},
      {"measurement": "cell count", "setting": "WM115", "value": 91.1, "unit": "%"},
      {"measurement": "cell count", "setting": "WM1716", "value": 48.4, "unit": "%"},
      {"measurement": "cell count", "setting": "WM1745", "value": 65.6, "unit": "%"},
      {"measurement": "cell count", "setting": "WM3526", "value": 73.8, "unit": "%"}
    ]},
    {"compound": "C[C@@H](N)c1ccc(C(=O)Nc2ccnc3[nH]ccc23)cc1", "note": "+ CN1CCN(c2ccc3nc(-c4c(N)c5c(F)cccc5[nH]c4=O)[nH]c3c2)CC1 [Dovitinib] (partner dose 0.5 µM)", "values": [
      {"measurement": "cell count", "setting": "G361", "value": 55.1, "unit": "%"},
      {"measurement": "cell count", "setting": "IPC-298", "value": 58.9, "unit": "%"},
      {"measurement": "cell count", "setting": "IST-MEL1", "value": 67.7, "unit": "%"},
      {"measurement": "cell count", "setting": "LB2518-MEL", "value": 53.4, "unit": "%"},
      {"measurement": "cell count", "setting": "LOXIMVI", "value": 58.4, "unit": "%"},
      {"measurement": "cell count", "setting": "MEL-HO", "value": 45.5, "unit": "%"},
      {"measurement": "cell count", "setting": "MZ2-MEL", "value": 31.5, "unit": "%"},
      {"measurement": "cell count", "setting": "MeWo", "value": 45.7, "unit": "%"},
      {"measurement": "cell count", "setting": "RPMI7951", "value": 43.4, "unit": "%"},
      {"measurement": "cell count", "setting": "RVH-421", "value": 46.9, "unit": "%"},
      {"measurement": "cell count", "setting": "SkMel28", "value": 46.5, "unit": "%"},
      {"measurement": "cell count", "setting": "SkMel2", "value": 56.2, "unit": "%"},
      {"measurement": "cell count", "setting": "SkMel30", "value": 78.5, "unit": "%"},
      {"measurement": "cell count", "setting": "SkMel5", "value": 61.3, "unit": "%"},
      {"measurement": "cell count", "setting": "UACC257", "value": 50.7, "unit": "%"},
      {"measurement": "cell count", "setting": "UACC62", "value": 79.8, "unit": "%"},
      {"measurement": "cell count", "setting": "WM115", "value": 66.8, "unit": "%"},
      {"measurement": "cell count", "setting": "WM1716", "value": 49.1, "unit": "%"},
      {"measurement": "cell count", "setting": "WM1745", "value": 28.8, "unit": "%"},
      {"measurement": "cell count", "setting": "WM3526", "value": 77.5, "unit": "%"}
    ]},
    {"compound": "CCCCCCCCCCCCCCCCCCOP(=O)([O-])OC1CC[N+](C)(C)CC1", "note": "[Perifosine] + CC1(C)NC(=O)N(c2ccc([N+](=O)[O-])c(C(F)(F)F)c2)C1=O [nilutamide] (partner dose 5 µM)", "values": [
      {"measurement": "cell count", "setting": "G361", "value": 68.1, "unit": "%"},
      {"measurement": "cell count", "setting": "IPC-298", "value": 109, "unit": "%"},
      {"measurement": "cell count", "setting": "IST-MEL1", "value": 93.8, "unit": "%"},
      {"measurement": "cell count", "setting": "LB2518-MEL", "value": 80.3, "unit": "%"},
      {"measurement": "cell count", "setting": "LOXIMVI", "value": 71.5, "unit": "%"},
      {"measurement": "cell count", "setting": "MEL-HO", "value": 101, "unit": "%"},
      {"measurement": "cell count", "setting": "MZ2-MEL", "value": 109, "unit": "%"},
      {"measurement": "cell count", "setting": "MeWo", "value": 96.4, "unit": "%"},
      {"measurement": "cell count", "setting": "RPMI7951", "value": 27.1, "unit": "%"},
      {"measurement": "cell count", "setting": "RVH-421", "value": 56.6, "unit": "%"},
      {"measurement": "cell count", "setting": "SkMel28", "value": 37.7, "unit": "%"},
      {"measurement": "cell count", "setting": "SkMel2", "value": 69.6, "unit": "%"},
      {"measurement": "cell count", "setting": "SkMel30", "value": 95.7, "unit": "%"},
      {"measurement": "cell count", "setting": "SkMel5", "value": 103, "unit": "%"},
      {"measurement": "cell count", "setting": "UACC257", "value": 97, "unit": "%"},
      {"measurement": "cell count", "setting": "UACC62", "value": 78.3, "unit": "%"},
      {"measurement": "cell count", "setting": "WM115", "value": 84.3, "unit": "%"},
      {"measurement": "cell count", "setting": "WM1716", "value": 70, "unit": "%"},
      {"measurement": "cell count", "setting": "WM1745", "value": 71.3, "unit": "%"},
      {"measurement": "cell count", "setting": "WM3526", "value": 85.9, "unit": "%"}
    ]},
    {"compound": "CCCCCCCCCCCCCCCCCCOP(=O)([O-])OC1CC[N+](C)(C)CC1", "note": "[Perifosine] + CN(C)S(=O)(=O)c1ccc2c(c1)/C(=C/c1cc3c([nH]1)CCCC3)C(=O)N2 [SU6656] (partner dose 2 µM)", "values": [
      {"measurement": "cell count", "setting": "G361", "value": 72.9, "unit": "%"},
      {"measurement": "cell count", "setting": "IPC-298", "value": 67.2, "unit": "%"},
      {"measurement": "cell count", "setting": "IST-MEL1", "value": 83.8, "unit": "%"},
      {"measurement": "cell count", "setting": "LB2518-MEL", "value": 67.6, "unit": "%"},
      {"measurement": "cell count", "setting": "LOXIMVI", "value": 87.8, "unit": "%"},
      {"measurement": "cell count", "setting": "MEL-HO", "value": 91.5, "unit": "%"},
      {"measurement": "cell count", "setting": "MZ2-MEL", "value": 95.6, "unit": "%"},
      {"measurement": "cell count", "setting": "MeWo", "value": 80.4, "unit": "%"},
      {"measurement": "cell count", "setting": "RPMI7951", "value": 24.2, "unit": "%"},
      {"measurement": "cell count", "setting": "RVH-421", "value": 86.5, "unit": "%"},
      {"measurement": "cell count", "setting": "SkMel28", "value": 67.7, "unit": "%"},
      {"measurement": "cell count", "setting": "SkMel2", "value": 82.4, "unit": "%"},
      {"measurement": "cell count", "setting": "SkMel30", "value": 79.1, "unit": "%"},
      {"measurement": "cell count", "setting": "SkMel5", "value": 85.8, "unit": "%"},
      {"measurement": "cell count", "setting": "UACC257", "value": 72.4, "unit": "%"},
      {"measurement": "cell count", "setting": "UACC62", "value": 96.2, "unit": "%"},
      {"measurement": "cell count", "setting": "WM115", "value": 55.3, "unit": "%"},
      {"measurement": "cell count", "setting": "WM1716", "value": 67.8, "unit": "%"},
      {"measurement": "cell count", "setting": "WM1745", "value": 60.2, "unit": "%"},
      {"measurement": "cell count", "setting": "WM3526", "value": 74.8, "unit": "%"}
    ]}
  ]
}
